According to the supplement of paper PMC4166925:
± gives the standard deviation of the averaged measurements. In all, about 33,000 sequences were measured (“E-score (dimensionless, -0.5 to 0.5)”: median about -0.049, highest 2% from about 0.37 on). This is one part of the list.

Tested on: T1, PmTbr T-box DNA-binding domain (GST fusion)
T1 sequence: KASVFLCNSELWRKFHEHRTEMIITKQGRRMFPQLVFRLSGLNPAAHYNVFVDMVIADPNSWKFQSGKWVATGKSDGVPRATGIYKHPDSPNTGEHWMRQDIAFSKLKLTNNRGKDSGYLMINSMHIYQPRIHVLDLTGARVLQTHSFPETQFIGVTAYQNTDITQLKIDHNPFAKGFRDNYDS
Experiment: PBM E-score of 8-mer (E-score (dimensionless, -0.5 to 0.5)); Tbr is Tbrain of the sea star Patiria miniata (Pm) or the sea urchin Strongylocentrotus purpuratus (Sp); higher = stronger binding preference; most listed sequences are background and not binding sites
Settings: the construct has about 5 more residues each side
Procedure, shortened: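 GST-fused Tbr T-box DNA-binding domains (the whole T-box plus about five flanking residues) were expressed in BL21 E. coli at 20 °C and purified by glutathione affinity chromatography. Universal Agilent oligonucleotide arrays were made double-stranded by primer extension, incubated with 200 nM protein in PBS (pH 7.5), then scanned and quantified. Every ungapped 8-mer was scored from probe intensities. The Universal PBM Analysis Suite gave each word an enrichment E-score, averaged over duplicate arrays.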

Sequence	PBM E-score of 8-mer
ACAACGCG	0.162 ± 0.032
AGGGAACC	-0.338 ± 0.013
CGATCCTA	-0.154 ± 0.054
GAGCTCGC	0.0675 ± 0.032
GAGTGTAA	0.169 ± 0.061
AAGGAAAA	-0.268 ± 0.071
CCAGTATC	-0.116 ± 0.094
AAGGCGGC	0.0998 ± 0.036
AGGGCAAT	-0.24 ± 0.022
AGGGTAAA	-0.131 ± 0.048
CCAATCAA	-0.159 ± 0.0096
AACTTAAT	-0.0144 ± 0.063
ACATAGTA	-0.105 ± 0.037
AACATATG	0.00926 ± 0.035
CCTTGAGA	-0.151 ± 0.027
CTATGCGA	0.106 ± 0.0032
CATGACCA	-0.244 ± 0.0078
ATAATCAT	-0.0737 ± 0.017
ACCAGATC	0.124 ± 0.021
GGCTAGCA	0.144 ± 0.016
CCCGTGCG	-0.102 ± 0.0041
ATGACGCC	0.2638 ± 0.0024

Sequence	PBM E-score of 8-mer
ACCTACCT	0.041 ± 0.034
ATCGAACG	0.0189 ± 0.029
AAATATGA	-0.117 ± 0.04
ACATCTGC	-0.0416 ± 0.016
CTGAGGAC	-0.0615 ± 0.0094
GGTGTCGA	0.461 ± 0.0086
AGAACAGG	-0.154 ± 0.0051
CATAATCC	-0.235 ± 0.087
TTGTTAAA	0.199 ± 0.035
GCGCAGTA	-0.152 ± 0.044
GATCGTCC	-0.304 ± 0.059
ACTACGTC	-0.248 ± 0.03
GAATGGGA	-0.214 ± 0.011
ATATCTTC	-0.0858 ± 0.014
CTTGCCCC	-0.0461 ± 0.026
CCGAATTA	-0.204 ± 0.048
CACGGTTC	0.129 ± 0.07
AAGCACCC	-0.16 ± 0.029
CTTTAAAA	-0.131 ± 0.048
AATCTGAG	-0.0214 ± 0.071
CAATACGA	-0.103 ± 0.052
ACGGTCTG	-0.0405 ± 0.017

Sequence	PBM E-score of 8-mer
GTGCCCAA	-0.132 ± 0.063
GAGTATAC	-0.192 ± 0.0026
CAGCTACA	-0.00135 ± 0.032
GCCTTGCC	-0.0503 ± 0.012
GACTAAGC	-0.311 ± 0.044
CGGTTAGC	0.178 ± 0.065
CGTTAATA	-0.0106 ± 0.061
ATTAAGTA	-0.154 ± 0.096
GGGACAAC	-0.163 ± 0.034
CAAGCTTA	-0.0937 ± 0.0022
GACTGTCC	-0.13 ± 0.072
GCCGGCCC	-0.322 ± 0.061
GGGAAAAC	0.0427 ± 0.0043
CAATCAGG	0.00619 ± 0.066
TATGACAA	0.0436 ± 0.061
ACCATTCG	0.233 ± 0.04
CGTAAGTC	-0.127 ± 0.046
ATTGCAAA	-0.103 ± 0.046
ATTTGTTG	0.0235 ± 0.013
AATGGAGA	-0.157 ± 0.08
AGGCAAAG	-0.173 ± 0.09
ACTAGTCT	-0.0838 ± 0.011

Sequence	PBM E-score of 8-mer
CGGTAGGA	-0.168 ± 0.021
GCCGCCGA	0.0456 ± 0.048
ATTCACGA	0.29 ± 0.0094
GACCCTGC	-0.037 ± 0.062
AGGGATAA	-0.203 ± 0.032
TACAAGTA	-0.118 ± 0.012
GCACCGGC	-0.183 ± 0.021
AGGGCGTA	0.054 ± 0.053
ATCCTACG	-0.284 ± 0.016
CGTGCCGA	0.159 ± 0.02
ATAATCCA	-0.336 ± 0.063
ATAGGGAG	0.0101 ± 0.0015
ATCTACAT	-0.0195 ± 0.017
GGGTACGA	-0.0497 ± 0.091
CCCACTTC	0.1799 ± 0.00066
ATATCCAG	-0.177 ± 0.02
TAAACATA	-0.133 ± 0.029
CCGGTCGA	-0.1 ± 0.056
AAACATAA	-0.0683 ± 0.041
GATGTTCA	0.161 ± 0.013
